Our source for the binding values is publication PMC7442955, “Biochemical and functional characterization of a meiosis-specific Pch2/ORC AAA+ assembly” (Life Science Alliance, 2020).

Assay [1] concerns the target T1, Orc2 (subunit of the insect cell–purified ORC) (budding yeast) (UniProt P32833).
T1 sequence: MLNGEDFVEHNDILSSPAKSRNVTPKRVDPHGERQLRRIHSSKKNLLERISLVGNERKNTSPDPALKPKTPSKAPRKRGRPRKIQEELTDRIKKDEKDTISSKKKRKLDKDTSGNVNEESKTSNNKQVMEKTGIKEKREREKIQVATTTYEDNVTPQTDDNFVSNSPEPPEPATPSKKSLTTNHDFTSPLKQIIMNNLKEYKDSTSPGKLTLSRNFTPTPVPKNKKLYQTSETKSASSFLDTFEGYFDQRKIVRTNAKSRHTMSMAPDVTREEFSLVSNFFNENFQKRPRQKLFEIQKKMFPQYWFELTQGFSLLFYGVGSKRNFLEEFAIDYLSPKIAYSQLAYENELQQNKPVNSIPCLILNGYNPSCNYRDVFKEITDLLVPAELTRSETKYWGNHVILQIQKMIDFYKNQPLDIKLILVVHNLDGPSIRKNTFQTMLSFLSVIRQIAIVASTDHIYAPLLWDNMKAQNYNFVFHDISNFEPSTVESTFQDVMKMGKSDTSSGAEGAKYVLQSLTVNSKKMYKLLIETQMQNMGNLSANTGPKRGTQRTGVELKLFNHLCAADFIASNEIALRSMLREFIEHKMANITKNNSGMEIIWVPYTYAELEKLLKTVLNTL
Description: cross-linking; XL-MS: 0.75 μM His–MBP–Pch2 with 1.5 μM His–ORC, 30 mM HEPES pH 7.5, 150 mM NaCl, 2 mM TCEP, 90 min at 4°C; 3 mM DSBU, 25°C, 1 h; MeroX, 2% FDR; both purified.

For assay [2], the target named is T2, Orc1 (yeast two-hybrid fusion) (budding yeast) (UniProt P54784).
T2 sequence: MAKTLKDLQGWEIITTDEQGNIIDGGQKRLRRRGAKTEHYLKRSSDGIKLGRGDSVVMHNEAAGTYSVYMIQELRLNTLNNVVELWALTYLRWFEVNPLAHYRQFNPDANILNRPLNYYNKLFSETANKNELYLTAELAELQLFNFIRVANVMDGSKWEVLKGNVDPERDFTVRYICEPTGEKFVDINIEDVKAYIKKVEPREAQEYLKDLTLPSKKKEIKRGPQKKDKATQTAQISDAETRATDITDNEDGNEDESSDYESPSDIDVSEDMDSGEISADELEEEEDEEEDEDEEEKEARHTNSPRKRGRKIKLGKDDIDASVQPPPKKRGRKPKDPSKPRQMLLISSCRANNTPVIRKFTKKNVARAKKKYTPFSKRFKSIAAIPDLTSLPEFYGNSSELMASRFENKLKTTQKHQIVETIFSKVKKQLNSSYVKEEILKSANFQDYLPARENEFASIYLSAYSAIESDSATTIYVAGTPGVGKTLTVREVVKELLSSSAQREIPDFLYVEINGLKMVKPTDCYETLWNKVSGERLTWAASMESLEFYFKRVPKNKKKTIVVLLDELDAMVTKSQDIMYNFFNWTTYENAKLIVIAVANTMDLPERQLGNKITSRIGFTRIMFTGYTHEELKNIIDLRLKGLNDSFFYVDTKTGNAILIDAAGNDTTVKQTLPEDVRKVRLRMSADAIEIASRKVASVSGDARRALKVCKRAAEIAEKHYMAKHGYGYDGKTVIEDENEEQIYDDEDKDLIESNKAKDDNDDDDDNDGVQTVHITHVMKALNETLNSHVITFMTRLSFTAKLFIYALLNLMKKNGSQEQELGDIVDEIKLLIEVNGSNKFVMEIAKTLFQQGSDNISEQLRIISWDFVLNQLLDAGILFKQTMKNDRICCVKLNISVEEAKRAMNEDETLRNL
Description: two-hybrid; bait and prey in pGBDU-C1 or pGAD-C1, reporter strain yGV864; spot assay on -Ura-Leu-His plates, 2–4 d.

These are yes or no findings as the source states them, for the method shown. Some entries that bind do so weakly or less than the wild type. For some assays here: Sequences can lack the tags named with a protein.

B1: Orc3 (subunit of the insect cell–purified ORC) (protein, UniProt P54790 1-616)
chain: MSDLNQSKKMNVSEFADAQRSHYTVYPSLPQSNKNDKHIPFVKLLSGKESEVNVEKRWELYHQLHSHFHDQVDHIIDNIEADLKAEISDLLYSETTQKRRCFNTIFLLGSDSTTKIELKDESSRYNVLIELTPKESPNVRMMLRRSMYKLYSAADAEEHPTIKYEDINDEDGDFTEQNNDVSYDLSLVENFKRLFGKDLAMVFNFKDVDSINFNTLDNFIILLKSAFKYDHVKISLIFNINTNLSNIEKNLRQSTIRLLKRNYHKLDVSSNKGFKYGNQIFQSFLDTVDGKLNLSDRFVEFILSKMANNTNHNLQLLTKMLDYSLMSYFFQNAFSVFIDPVNVDFLNDDYLKILSRCPTFMFFVEGLIKQHAPADEILSLLTNKNRGLEEFFVEFLVRENPINGHAKFVARFLEEELNITNFNLIELYHNLLIGKLDSYLDRWSACKEYKDRLHFEPIDTIFQELFTLDNRSGLLTQSIFPSYKSNIEDNLLSWEQVLPSLDKENYDTLSGDLDKIMAPVLGQLFKLYREANMTINIYDFYIAFRETLPKEEILNFIRKDPSNTKLLELAETPDAFDKVALILFMQAIFAFENMGLIKFQSTKSYDLVEKCVWRGI
Consider B1, for which the binding entry in assay [1] was “binds”.

B2: Pch2 2-121 (yeast two-hybrid fusion) (domain or fragment, UniProt P38126 2-121)
chain: SYIVDLQVRGSSLRVIKCMFREDEQISSLHSGSDSKQNSNKKLGEFLNLLKAVVKRKLESFPKDRLKTSIITGQELMREGQGSIEIKDPPTEAQQHLIRSLAKVLLHQFSSINGKVNTVN
Regarding B2, in assay [2], the binding entry was “no binding”.

B3: Pch2 2-242 (yeast two-hybrid fusion) (domain or fragment, UniProt P38126 2-242)
chain: SYIVDLQVRGSSLRVIKCMFREDEQISSLHSGSDSKQNSNKKLGEFLNLLKAVVKRKLESFPKDRLKTSIITGQELMREGQGSIEIKDPPTEAQQHLIRSLAKVLLHQFSSINGKVNTVNEGQDNLFLSLFVKKISIEQQSTSHVSIKLNFHEKINLGQHIDSILDSEETNESDTYHMGSVDEFIIYPFCCLEEQDELKNGSILSTEFDKIDLELDEDDGFEGETLNNCINSVGNFDIPLS
As for B3, the binding entry in assay [2] is “binds”.

B4: Pch2 2-60 (yeast two-hybrid fusion) (domain or fragment, UniProt P38126 2-60)
chain: SYIVDLQVRGSSLRVIKCMFREDEQISSLHSGSDSKQNSNKKLGEFLNLLKAVVKRKLE
As for B4, in assay [2], the binding result is “no binding”. With SYIVDLQVRGSSLRVIKCMFREDEQI (domain or fragment, UniProt P38126 2-27) [Pch2 2-27 (yeast two-hybrid fusion)], the binding entry in assay [2] was “no binding”.
